# Paper PMC4207660, “Identification and Characterization of Hundreds of Potent and Selective Inhibitors of Trypanosoma brucei Growth from a Kinase-Targeted Library Screening Campaign” (PLoS Neglected Tropical Diseases, 2014)
# Tests used:
# [1] = test system: T. brucei brucei parasites (Lister 427 strain); assay: Dose response growth inhibition assay (resazurin, 72 h); format: cell-based; details: Trypanosoma brucei; T. b. brucei growth inhibition; read-out: Tbb pEC50 (converted)
# Procedure: Greiner sterile black clear bottom 384-well assay plates were pre-dispensing with 200 nL of compound in each well, from master plates at 1 mM (100% DMSO) containing selection from the GSK compound collection. Controls of 0% response (control 1, 200 nL of 100%DMSO) and 100% response (control 2, 200 nL of 1 mM pentamidine) were included in each assay plate in columns 6 and 18, respectively. Plates containing 200 nL of 100% DMSO were included randomly in the assay, to assess quality through all process. […] After this period, 10 µL of 200 µM resazurin solution in prewarmed HMI-9 were added to each well, and plates were allowed to incubate 2 hours more prior fluorescence reading in a Wallac EnVision Multilabel Plate Reader (Perkin-Elmer). Raw fluorescent data from the Envision plate reader were uploaded into GSK HTS database (ActivityBase). Activity of each well was normalized as a percentage of inhibition per-plate basis using the following equation: [drawing 1]
# For dose-response experiments, serial compound dilutions of selected hits from the primary campaign were plotted against compound concentration. Dose response master plates were prepared by 3-fold dilutions (starting with 10 mM DMSO stock solutions), providing 11 concentrations. From these master plates, 200 nL per well was stamped in final assay plates, including the same controls describe in the primary single shot assay. […]
# [2] = CLND kinetic solubility assay; format: physicochemical; details: phosphate buffered saline, pH 7.4, aqueous buffer, kinetic from dmso stock; Measured; read-out: Aq Sol
# Procedure: 5 µL of 10 mM DMSO stock solution was diluted to 100 µL with pH 7.4 phosphate buffered saline, equilibrated for 1 hour at room temperature, filtered through Millipore MultiscreenHTS-PCF filter plates (MSSL BPC). The filtrate was quantified by suitably calibrated flow injection Chemi-Luminescent Nitrogen Detection.
# [3] = target: T1, Human Serum Albumin (HSA) (Homo sapiens, UniProt P02768); assay: Protein binding assay (HPLC stationary phase), HSA; format: in vitro ADME; details: Measured
# T1 construct: purchased Chiral Technologies, France
# Procedure: Chemically bonded Human Serum Albumin (HSA) and Alpha-1-acidglycoprotein HPLC stationary phases (Chiral Technologies, France) were used for measuring compounds' binding to plasma proteins, applying linear gradient elution up to 30% iso-propanol. The run time was 6 min, including the re-equilibration of the stationary phases with the 50 mM pH7.4 ammonium acetate buffer. The obtained gradient retention times were standardised using a calibration set of mixtures as described in the references. The average standard error of the assay depends on the binding strength and kinetics of the compounds.
Structure (SMILES),EC50 [1],solubility kinetic at 1 h [2],HSA % binding [3]
CC(C)CC(=O)c1ccc2c(c1)/C(=C/c1cc(Cl)c(O)c(Cl)c1)C(=O)N2 [NEU-0001186],631 nM,334 µM,
CCCNc1nc(Nc2cnn(C)c2)c2c(=O)[nH]ccc2n1 [NEU-0001187],,,85.65%
CC(C)=Cc1cccc2c1C(=NNc1ccc(S(N)(=O)=O)cc1)C(=O)N2 [NEU-0001183],,3 µM,
O=C(NC(CO)c1ccccc1)c1coc(-c2c[nH]c3nccc(F)c23)c1 (centres unmarked) [NEU-0001174],31.6 nM,170 µM,95.5%
O=C(Nc1ccc(-c2ccnc3[nH]ccc23)s1)C1(Cc2ccccc2)CCCNC1 (centres unmarked) [NEU-0001240],,,95.5%
